Measurements: publication PMC5386880
These are yes or no findings as the source states them, for the method shown. Some entries that bind do so weakly or less than the wild type. Where a sequence is shown, tags or fusion partners need not be part of it.

Protein sequences, listed by entry. Tags and fused reporters are not part of them.
UniProt P51140: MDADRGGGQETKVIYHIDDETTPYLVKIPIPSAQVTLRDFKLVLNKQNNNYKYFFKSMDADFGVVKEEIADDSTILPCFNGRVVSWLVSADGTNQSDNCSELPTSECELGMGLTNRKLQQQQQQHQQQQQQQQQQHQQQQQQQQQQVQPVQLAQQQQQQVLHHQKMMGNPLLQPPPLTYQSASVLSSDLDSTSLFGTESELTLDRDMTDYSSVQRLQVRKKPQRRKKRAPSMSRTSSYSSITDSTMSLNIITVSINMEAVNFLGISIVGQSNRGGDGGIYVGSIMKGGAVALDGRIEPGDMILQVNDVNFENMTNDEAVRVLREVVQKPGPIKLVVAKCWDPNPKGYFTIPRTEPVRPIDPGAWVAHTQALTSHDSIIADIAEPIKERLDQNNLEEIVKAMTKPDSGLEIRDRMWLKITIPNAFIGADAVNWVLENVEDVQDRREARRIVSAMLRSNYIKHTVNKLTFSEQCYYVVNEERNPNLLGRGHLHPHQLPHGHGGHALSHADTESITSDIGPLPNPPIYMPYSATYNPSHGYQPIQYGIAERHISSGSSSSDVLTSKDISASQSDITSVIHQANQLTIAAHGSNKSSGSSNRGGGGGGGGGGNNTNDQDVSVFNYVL

biological target: Dishevelled (Dsh), full length, yeast two-hybrid fusion (Drosophila) (UniProt P51140); assay: two-hybrid; yeast strain AH109, Matchmaker Two-Hybrid System 3 (pGADT7 and pGBKT7 cotransformed); growth on SD/-Ade/-His/-Leu/-Trp with X-alpha-Gal taken as positive

Binder | binding
Frtz with aa 800-951 deleted (protein, UniProt Q9VQ36) MLLSETHFWTTLREDVVRIKSQDLGAFRYLRQRDKEQEQQDLACLAKRDYTERRNGLAVLKNSGRKSTGRLKDNLKKLEDLLRQHRIIHSEWQDAAQVLLLFSHGLIAHICVDIYTGDILRMVFEKYLVGKLASEVITDAFFTRSHIVLAYNTNQLTVVHLQRPNARSQGPEKIANMDPRIFHVIIPGATERKLSRHLTVNASFDLFVVWTQSSQNEVYPWRPTIRDQDRANIHVFKIKGLQLESIAYCWSENDPLCVDFLRSSESQIITLEQKVSRKGDISAEICSYELAAGKMQRTAITSIPMGAQICSFAFSPDQEKLFLGSVDRNICLHDLVQQSTKYANQIEIVPNQCAWHCDSAMLCVANERSVLQCFDLALATIGHQLVSENVTPSSLLDLSHYFVAQPTLLSVAFSRKPDLSTFKHTYAQTDCLLLLVYEQGPLACMRIFGGTGMRGDIHNSGLTADVIADKYLRLQQPDRAVNVLAALNWETYGAMCLITLHKIANYVFFGGDQRRPRIELMARALKTFAHTLSEETKDEFSDQVYDLKRRFCFYLLRKNLFAEAFEIAQDVADYDIFMDLYNLTKCISSLSEFAQVAFSQAAAIIHEEDRANGNLSLTCDLRSESACSLSTCSDMLRGQGAGTAPETGLGASQPQSQQVLKNYVPPLPSFKSKVFNAEMIKINIPKPELRPPLPKVSIAPPTSSLASLTLKSNSSLQQAPAKSLHPNGNLWSQDVPDQTVGLPMASSPLPRLPPSNIPDQSAQLGQFSTMPASPPPTGSYQPKFYQHPLVSGNIPAMLP | binds
Fritz (Frtz), full length, yeast two-hybrid fusion (protein, UniProt Q9VQ36 1-951) MLLSETHFWTTLREDVVRIKSQDLGAFRYLRQRDKEQEQQDLACLAKRDYTERRNGLAVLKNSGRKSTGRLKDNLKKLEDLLRQHRIIHSEWQDAAQVLLLFSHGLIAHICVDIYTGDILRMVFEKYLVGKLASEVITDAFFTRSHIVLAYNTNQLTVVHLQRPNARSQGPEKIANMDPRIFHVIIPGATERKLSRHLTVNASFDLFVVWTQSSQNEVYPWRPTIRDQDRANIHVFKIKGLQLESIAYCWSENDPLCVDFLRSSESQIITLEQKVSRKGDISAEICSYELAAGKMQRTAITSIPMGAQICSFAFSPDQEKLFLGSVDRNICLHDLVQQSTKYANQIEIVPNQCAWHCDSAMLCVANERSVLQCFDLALATIGHQLVSENVTPSSLLDLSHYFVAQPTLLSVAFSRKPDLSTFKHTYAQTDCLLLLVYEQGPLACMRIFGGTGMRGDIHNSGLTADVIADKYLRLQQPDRAVNVLAALNWETYGAMCLITLHKIANYVFFGGDQRRPRIELMARALKTFAHTLSEETKDEFSDQVYDLKRRFCFYLLRKNLFAEAFEIAQDVADYDIFMDLYNLTKCISSLSEFAQVAFSQAAAIIHEEDRANGNLSLTCDLRSESACSLSTCSDMLRGQGAGTAPETGLGASQPQSQQVLKNYVPPLPSFKSKVFNAEMIKINIPKPELRPPLPKVSIAPPTSSLASLTLKSNSSLQQAPAKSLHPNGNLWSQDVPDQTVGLPMASSPLPRLPPSNIPDQSAQLGQFSTMPASPPPTGSYQPKFYQHPLVSGNIPAMLPSLTSEDYQKRLLQKKPTASILSNPANPAPTNGEAPATPAKSQTAEKNKVKFSDTIQVAVVPEIPRKEKPMPPKRNGYSRPAARHLTNPKKELADSLPLCHPNDEYLKDFNPITTNVTKPPIRRREEEPKSSSKGGNSSSSSSSIKVVHFGVV | binds
Frtz with aa 300-400 deleted (protein, UniProt Q9VQ36) MLLSETHFWTTLREDVVRIKSQDLGAFRYLRQRDKEQEQQDLACLAKRDYTERRNGLAVLKNSGRKSTGRLKDNLKKLEDLLRQHRIIHSEWQDAAQVLLLFSHGLIAHICVDIYTGDILRMVFEKYLVGKLASEVITDAFFTRSHIVLAYNTNQLTVVHLQRPNARSQGPEKIANMDPRIFHVIIPGATERKLSRHLTVNASFDLFVVWTQSSQNEVYPWRPTIRDQDRANIHVFKIKGLQLESIAYCWSENDPLCVDFLRSSESQIITLEQKVSRKGDISAEICSYELAAGKMQRTAYFVAQPTLLSVAFSRKPDLSTFKHTYAQTDCLLLLVYEQGPLACMRIFGGTGMRGDIHNSGLTADVIADKYLRLQQPDRAVNVLAALNWETYGAMCLITLHKIANYVFFGGDQRRPRIELMARALKTFAHTLSEETKDEFSDQVYDLKRRFCFYLLRKNLFAEAFEIAQDVADYDIFMDLYNLTKCISSLSEFAQVAFSQAAAIIHEEDRANGNLSLTCDLRSESACSLSTCSDMLRGQGAGTAPETGLGASQPQSQQVLKNYVPPLPSFKSKVFNAEMIKINIPKPELRPPLPKVSIAPPTSSLASLTLKSNSSLQQAPAKSLHPNGNLWSQDVPDQTVGLPMASSPLPRLPPSNIPDQSAQLGQFSTMPASPPPTGSYQPKFYQHPLVSGNIPAMLPSLTSEDYQKRLLQKKPTASILSNPANPAPTNGEAPATPAKSQTAEKNKVKFSDTIQVAVVPEIPRKEKPMPPKRNGYSRPAARHLTNPKKELADSLPLCHPNDEYLKDFNPITTNVTKPPIRRREEEPKSSSKGGNSSSSSSSIKVVHFGVV | binds
Frtz with aa 400-500 deleted (protein, UniProt Q9VQ36) MLLSETHFWTTLREDVVRIKSQDLGAFRYLRQRDKEQEQQDLACLAKRDYTERRNGLAVLKNSGRKSTGRLKDNLKKLEDLLRQHRIIHSEWQDAAQVLLLFSHGLIAHICVDIYTGDILRMVFEKYLVGKLASEVITDAFFTRSHIVLAYNTNQLTVVHLQRPNARSQGPEKIANMDPRIFHVIIPGATERKLSRHLTVNASFDLFVVWTQSSQNEVYPWRPTIRDQDRANIHVFKIKGLQLESIAYCWSENDPLCVDFLRSSESQIITLEQKVSRKGDISAEICSYELAAGKMQRTAITSIPMGAQICSFAFSPDQEKLFLGSVDRNICLHDLVQQSTKYANQIEIVPNQCAWHCDSAMLCVANERSVLQCFDLALATIGHQLVSENVTPSSLLDLSHKIANYVFFGGDQRRPRIELMARALKTFAHTLSEETKDEFSDQVYDLKRRFCFYLLRKNLFAEAFEIAQDVADYDIFMDLYNLTKCISSLSEFAQVAFSQAAAIIHEEDRANGNLSLTCDLRSESACSLSTCSDMLRGQGAGTAPETGLGASQPQSQQVLKNYVPPLPSFKSKVFNAEMIKINIPKPELRPPLPKVSIAPPTSSLASLTLKSNSSLQQAPAKSLHPNGNLWSQDVPDQTVGLPMASSPLPRLPPSNIPDQSAQLGQFSTMPASPPPTGSYQPKFYQHPLVSGNIPAMLPSLTSEDYQKRLLQKKPTASILSNPANPAPTNGEAPATPAKSQTAEKNKVKFSDTIQVAVVPEIPRKEKPMPPKRNGYSRPAARHLTNPKKELADSLPLCHPNDEYLKDFNPITTNVTKPPIRRREEEPKSSSKGGNSSSSSSSIKVVHFGVV | binds
Frtz with aa 500-600 deleted (protein, UniProt Q9VQ36) MLLSETHFWTTLREDVVRIKSQDLGAFRYLRQRDKEQEQQDLACLAKRDYTERRNGLAVLKNSGRKSTGRLKDNLKKLEDLLRQHRIIHSEWQDAAQVLLLFSHGLIAHICVDIYTGDILRMVFEKYLVGKLASEVITDAFFTRSHIVLAYNTNQLTVVHLQRPNARSQGPEKIANMDPRIFHVIIPGATERKLSRHLTVNASFDLFVVWTQSSQNEVYPWRPTIRDQDRANIHVFKIKGLQLESIAYCWSENDPLCVDFLRSSESQIITLEQKVSRKGDISAEICSYELAAGKMQRTAITSIPMGAQICSFAFSPDQEKLFLGSVDRNICLHDLVQQSTKYANQIEIVPNQCAWHCDSAMLCVANERSVLQCFDLALATIGHQLVSENVTPSSLLDLSHYFVAQPTLLSVAFSRKPDLSTFKHTYAQTDCLLLLVYEQGPLACMRIFGGTGMRGDIHNSGLTADVIADKYLRLQQPDRAVNVLAALNWETYGAMCLITAAAIIHEEDRANGNLSLTCDLRSESACSLSTCSDMLRGQGAGTAPETGLGASQPQSQQVLKNYVPPLPSFKSKVFNAEMIKINIPKPELRPPLPKVSIAPPTSSLASLTLKSNSSLQQAPAKSLHPNGNLWSQDVPDQTVGLPMASSPLPRLPPSNIPDQSAQLGQFSTMPASPPPTGSYQPKFYQHPLVSGNIPAMLPSLTSEDYQKRLLQKKPTASILSNPANPAPTNGEAPATPAKSQTAEKNKVKFSDTIQVAVVPEIPRKEKPMPPKRNGYSRPAARHLTNPKKELADSLPLCHPNDEYLKDFNPITTNVTKPPIRRREEEPKSSSKGGNSSSSSSSIKVVHFGVV | binds
Frtz with aa 600-700 deleted (protein, UniProt Q9VQ36) MLLSETHFWTTLREDVVRIKSQDLGAFRYLRQRDKEQEQQDLACLAKRDYTERRNGLAVLKNSGRKSTGRLKDNLKKLEDLLRQHRIIHSEWQDAAQVLLLFSHGLIAHICVDIYTGDILRMVFEKYLVGKLASEVITDAFFTRSHIVLAYNTNQLTVVHLQRPNARSQGPEKIANMDPRIFHVIIPGATERKLSRHLTVNASFDLFVVWTQSSQNEVYPWRPTIRDQDRANIHVFKIKGLQLESIAYCWSENDPLCVDFLRSSESQIITLEQKVSRKGDISAEICSYELAAGKMQRTAITSIPMGAQICSFAFSPDQEKLFLGSVDRNICLHDLVQQSTKYANQIEIVPNQCAWHCDSAMLCVANERSVLQCFDLALATIGHQLVSENVTPSSLLDLSHYFVAQPTLLSVAFSRKPDLSTFKHTYAQTDCLLLLVYEQGPLACMRIFGGTGMRGDIHNSGLTADVIADKYLRLQQPDRAVNVLAALNWETYGAMCLITLHKIANYVFFGGDQRRPRIELMARALKTFAHTLSEETKDEFSDQVYDLKRRFCFYLLRKNLFAEAFEIAQDVADYDIFMDLYNLTKCISSLSEFAQVAFSPTSSLASLTLKSNSSLQQAPAKSLHPNGNLWSQDVPDQTVGLPMASSPLPRLPPSNIPDQSAQLGQFSTMPASPPPTGSYQPKFYQHPLVSGNIPAMLPSLTSEDYQKRLLQKKPTASILSNPANPAPTNGEAPATPAKSQTAEKNKVKFSDTIQVAVVPEIPRKEKPMPPKRNGYSRPAARHLTNPKKELADSLPLCHPNDEYLKDFNPITTNVTKPPIRRREEEPKSSSKGGNSSSSSSSIKVVHFGVV | binds
Frtz with aa 700-800 deleted (protein, UniProt Q9VQ36) MLLSETHFWTTLREDVVRIKSQDLGAFRYLRQRDKEQEQQDLACLAKRDYTERRNGLAVLKNSGRKSTGRLKDNLKKLEDLLRQHRIIHSEWQDAAQVLLLFSHGLIAHICVDIYTGDILRMVFEKYLVGKLASEVITDAFFTRSHIVLAYNTNQLTVVHLQRPNARSQGPEKIANMDPRIFHVIIPGATERKLSRHLTVNASFDLFVVWTQSSQNEVYPWRPTIRDQDRANIHVFKIKGLQLESIAYCWSENDPLCVDFLRSSESQIITLEQKVSRKGDISAEICSYELAAGKMQRTAITSIPMGAQICSFAFSPDQEKLFLGSVDRNICLHDLVQQSTKYANQIEIVPNQCAWHCDSAMLCVANERSVLQCFDLALATIGHQLVSENVTPSSLLDLSHYFVAQPTLLSVAFSRKPDLSTFKHTYAQTDCLLLLVYEQGPLACMRIFGGTGMRGDIHNSGLTADVIADKYLRLQQPDRAVNVLAALNWETYGAMCLITLHKIANYVFFGGDQRRPRIELMARALKTFAHTLSEETKDEFSDQVYDLKRRFCFYLLRKNLFAEAFEIAQDVADYDIFMDLYNLTKCISSLSEFAQVAFSQAAAIIHEEDRANGNLSLTCDLRSESACSLSTCSDMLRGQGAGTAPETGLGASQPQSQQVLKNYVPPLPSFKSKVFNAEMIKINIPKPELRPPLPKVSIALTSEDYQKRLLQKKPTASILSNPANPAPTNGEAPATPAKSQTAEKNKVKFSDTIQVAVVPEIPRKEKPMPPKRNGYSRPAARHLTNPKKELADSLPLCHPNDEYLKDFNPITTNVTKPPIRRREEEPKSSSKGGNSSSSSSSIKVVHFGVV | no binding
